According to PubChem BioAssay (Tox21):
This list was built around the results that the source calls inconclusive (neither active nor inactive); the mix of calls is not that of the screen. For some assays here: No potency is given beside an inconclusive call; the fits are too rough. Active and inactive are the calls of the source. Unless noted, the call rests on the fitted dose curve; in most records, active means well fitted curve in the direction sought with a large enough effect in the repeat runs; inconclusive means weak or mixed curves; inactive means no such curve, though single readings can be large; an effect the other way counts as inactive or inconclusive.

Tests used:
[1] = qHTS assay to identify small molecule antagonists of the estrogen related receptor signaling pathway with the pleiotropic PPARgamma coactivator (PGC) from Tox21 10K library (AID 1224841; call rule not given here; further: on the % scale 0 is the no-effect control and ±100 the full control effect; actives are mostly falling curves and most rising ones were filed inactive; nearly all actives have a fitted effect of over 50% in size)
In short: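 qHTS antagonist format: PGC/ERR cells, 2k/well, compound in DMSO by pin transfer after 6 h attachment, 18 h treatment at 37 C, One-Glo luminescence read at 30 min.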

[2] = molecular target: Bile acid receptor (Homo sapiens) (UniProt Q96RI1); assay: qHTS assay to identify small molecule agonists of the farnesoid-X-receptor (FXR) signaling pathway (AID 743220; active means well fitted activation curve with a large enough effect in the signal ratio in the repeat runs, not every such curve was filed as active; inconclusive means weak or mixed curves, or effect the other way; the % refers to the signal ratio; further: potency means the concentration at half of the fitted maximal effect; on activation: on the % scale 0 is the no-effect control and ±100 the full control effect); conditions: HEK293T FXR-UAS-bla, beta-lactamase FRET ratio, 16 h; activation: at 62.6 µM (top of the series)
In short: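 Beta-lactamase reporter under UAS control in GeneBLAzer FXR HEK 293T cells (5000/well) measured with LiveBLAzer FRET substrate after 2 h at room temperature. Compound exposure lasted 16 h at 37C.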

[3] = molecular target: Nuclear receptor subfamily 1 group I member 3 (Homo sapiens) (UniProt Q14994); assay: qHTS assay to identify small molecule antagonists of the constitutive androstane receptor (CAR) signaling pathway (AID 1224838);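 further: HepG2 cells stably expressing hCAR with CYP2B6 luciferase reporter stimulated by CITCO; potency means the concentration at half of the fitted maximal effect; nearly all actives have a fitted effect of over 40% in size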
In short: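 Cell line: HepG2 double-stable for hCAR and CYP2B6-2.2kb reporter. Agonist: CITCO, 50 nM final. Compounds: 15 concentrations, 24 h, 37 C. Detection: ONE-Glo luminescence.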

[4] = A CellTox Green Cytotoxicity Assay to monitor cytotoxicity in HEK293 cells - 0 hour (AID 1224869); further: potency means the concentration at half of the fitted maximal effect; nearly all actives have a fitted effect of over 50% in size
In short: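 Fluorescence intensity, read at 0, 8, 16, 24, 32 and 40 h of compound treatment, reflected dye binding to DNA of dead HEK293 cells; compounds (23 nL, DMSO) were added 5 h after plating cells with reagent.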

[5] = molecular target: Estrogen receptor (Homo sapiens) (UniProt P03372); assay: qHTS assay to identify small molecule antagonists of the estrogen receptor alpha (ER-alpha) signaling pathway using the BG1 cell line in the presence of 0.1 nM 17-beta-estradiol (AID 1259244); further: potency means the concentration at half of the fitted maximal effect; nearly all actives have a fitted effect of over 50% in size
In short: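 Estradiol at 0.1 nM (final) stimulates the endogenous ER-alpha of VM7Luc4E2 cells carrying an ERE-driven luciferase; compounds are co-incubated 22 h at 37C and luciferase output quantified by luminescence.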

[6] = qHTS assay to identify small molecule antagonists of the estrogen related receptor (ERR) signaling pathway from Tox21 library (AID 1224848); further: on the % scale 0 is the no-effect control and ±100 the full control effect; nearly all actives have a fitted effect of over 50% in size
In short: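 Screening used an ERR reporter line supplied by NTP, exposed for 18 h at 37 C to library compounds delivered in DMSO. Signal was luciferase luminescence developed with ONE-Glo at room temperature for 30 min.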

[7] = qHTS assay for small molecule activators of the heat shock response signaling pathway (AID 743210; active means well fitted activation curve with a large enough effect in the signal ratio in the repeat runs, with a control signal flat, not every such curve was filed as active; inconclusive means weak or mixed curves; the % refers to the signal ratio; further: potency means the concentration at half of the fitted maximal effect); conditions: HeLa HSE-bla reporter, beta-lactamase ratio, 5 h; activation: at 62.6 µM (top of the series) unless noted
In short: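 Reporter gene assay: HeLa cells stably bearing an HSE-bla construct, compound treatment 5 h at 37 C, LiveBLAzer substrate 2.5 h at RT, fluorescence intensity.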

[8] = molecular target: Thyrotropin-releasing hormone receptor (Homo sapiens) (UniProt P34981); assay: qHTS assay to identify small molecule antagonists of the thyrotropin-releasing hormone receptor (TRHR) signaling pathway (AID 1346877; active means well fitted inhibition curve with a large enough effect in the repeat runs, not every such curve was filed as active; inconclusive means weak or mixed curves; further: on the % scale 0 is the no-effect control and ±100 the full control effect)
In short: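 Following an 18 h incubation at 37 °C and a 2 h calcium dye load, TRHR-HEK293 cells were exposed to compound (5 min, room temperature) and challenged with TRH, 1 nM final.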

[9] = qHTS RealTime-Glo MT Cell Viability Assay in HepG2 cells - 8 hour (AID 1224873); further: on the % scale 0 is the no-effect control and ±100 the full control effect; nearly all actives have a fitted effect of over 55% in size
In short: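 HepG2 cells mixed with RealTime-Glo MT reagents (NanoLuc plus cell-permeant prosubstrate) were seeded at 600 cells/well, incubated 5 h at 37 C/5% CO2, then pinned with compounds in DMSO; nonlytic luminescence tracked viability during 40 h treatment.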

[10] = qHTS assay for small molecule agonists of the antioxidant response element (ARE) signaling pathway - cell viability counter screen (AID 743203; calls by dose curve; further: on the % scale 0 is the no-effect control and ±100 the full control effect; nearly all actives have a fitted effect of over 55% in size); conditions: ARE-bla HepG2 viability, CellTiter-Glo luminescence, 16 h; viability change, negative = cytotoxic: at 73.3 µM (top of the series)
In short: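 Following 16 hrs of compound treatment at 37C, HepG2 cells with an ARE-controlled beta-lactamase gene were lysed with CellTiter-Glo. Luminescence was read after 30 min at room temperature.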

[11] = qHTS assay to identify small molecule agonists or antagonists of the thyroid stimulating hormone receptor (TSHR) signaling pathway - wild type cell line counter screen (AID 1259384; calls by dose curve; further: on the % scale 0 is the no-effect control and ±100 the full control effect); conditions: HEK293 wild type, cAMP HTRF counter-screen; at 42.5 µM (top of the series); stronger effect = higher value
In short: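 Wild-type HEK293 cells were plated 18 h at 37 C/5% CO2, pin-dosed with compound plus Ro20-1724 medium, held 30 min at room temperature, then given cAMP-d2 and anti-cAMP-cryptate; fluorescence was read after 1 h. Fifteen concentrations, triplicate.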

[12] = Caspase-3/7 induction in HepG2 cells by small molecules, qHTS cell viability counter screen (AID 1346981); further: on the % scale 0 is the no-effect control and ±100 the full control effect; nearly all actives have a fitted effect of over 30% in size
In short: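 Viability determined by CellTiter-Fluor fluorescence in HepG2 wells also used for the luminescent Caspase-Glo 3/7 read. Compounds were present for 16 hr at 37 C, 5% CO2 before reagent addition.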

[13] = Caspase-3/7 induction in CHO-K1 cells by small molecules, qHTS assay (AID 1346980); further: nearly all actives have a fitted effect of over 15% in size; further: potency means the concentration at half of the fitted maximal effect
In short: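 Wild-type cells were seeded at 1,500 per well and settled 5 hr at 37 C, 5% CO2, then exposed to DMSO-dissolved compounds for 17 hr. Caspase-Glo 3/7 reagent was added, and luminescence was read after 30min at room temperature.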

[14] = molecular target: Estrogen receptor (Homo sapiens) (UniProt P03372); assay: qHTS assay to identify small molecule agonists of the estrogen receptor alpha (ER-alpha) signaling pathway in the presence of an antagonist (AID 1259383; calls by dose curve; further: top concentration of the series differs between compounds; on the % scale 0 is the no-effect control and ±100 the full control effect; nearly all actives have a fitted effect of over 15% in size)
In short: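 Stably transfected VM7Luc4E2 reporter cells, kept 5 days in charcoal-stripped serum, received ICI-182,780 at 10.0nM final before compound addition. Following 22hr incubation at 37C and 5% CO2, luciferase signal was read by luminescence.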

[15] = molecular target: Nuclear receptor subfamily 1 group I member 2 (Homo sapiens) (UniProt O75469); assay: Human pregnane X receptor (PXR) activation by small molecules, qHTS assay (AID 1346985); further: potency means the concentration at half of the fitted maximal effect; nearly all actives have a fitted effect of over 40% in size
In short: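 DPX-2 cells (HepG2 co-transfected with a PXR response element and a CYP3A4-promoter luciferase construct) were seeded at 2,000 per well, rested 5 hr at 37C, then exposed to DMSO-dissolved compounds for 24 hr. Activation was read as luciferase luminescence.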

[16] = molecular target: Androgen receptor (Homo sapiens) (UniProt P10275); assay: qHTS assay to identify small molecule agonists of the androgen receptor (AR) signaling pathway in the presence of an antagonist (AID 1259381; calls by dose curve; further: nearly all actives have a fitted effect of over 15% in size; further: potency means the concentration at half of the fitted maximal effect; on activation: on the % scale 0 is the no-effect control and ±100 the full control effect); conditions: MDA-kb2 MMTV-luciferase, AR agonist + nilutamide, 16 h; activation: at 92.4 µM (top of the series)
In short: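 Test compounds at 15 concentrations were incubated for 16hr with MDA-kb2 reporter cells in presence of 3.0uM nilutamide (final). Signal: ONE-Glo luciferase luminescence.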

[17] = qHTS assay to test for compound auto fluorescence at 460 nm (blue) in HEK293 cells (AID 720678); further: potency means the concentration at half of the fitted maximal effect
In short: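 Blue read-out at excitation 405 nm and emission 460 nm follows overnight compound exposure of HEK293 cells at 37C in 5% CO2. Activity is given as auto fluorescence equivalency to triamterene.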

[18] = qHTS assay to identify small molecule agonists of the estrogen receptor alpha (ER-alpha) signaling pathway in the presence of an antagonist - cell viability counter screen (AID 1259386);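 further: cells exposed to compounds for 22 h at 37 °C before the viability read; on the % scale 0 is the no-effect control and ±100 the full control effect; nearly all actives have a fitted effect of over 30% in size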
In short: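 Viability counter screen using VM7Luc4E2 (full-length ER-alpha, four ERE-luciferase). The cells were treated with compounds alongside ICI-182,780 10.0nM for 22hr, and live-cell protease fluorescence was quantified with CellTiter-Fluor.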

[19] = molecular target: Androgen receptor (Homo sapiens) (UniProt P10275); assay: qHTS assay to identify small molecule antagonists of the androgen receptor (AR) signaling pathway using the MDA cell line in the presence of 0.5 nM R1881 (AID 1259243)
In short: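 Reporter cells cultured without CO2 receive test chemicals, then 0.5 nM R1881 final; after 16 hr at 37C, ONE-Glo is added and light output recorded.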

[20] = Caspase-3/7 induction in HepG2 cells by small molecules, qHTS assay (AID 1346978); further: on the % scale 0 is the no-effect control and ±100 the full control effect; nearly all actives have a fitted effect of over 15% in size
In short: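 Wild-type HepG2 cells (2,000/well) were settled 5 h at 37 C, 5% CO2, then exposed to compounds in DMSO for 17 h. Caspase-3/7 activity was read by luminescence 30 min after adding Caspase-Glo 3/7 reagent at room temperature.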
Tags describe the fitted curve by direction and shape or compound fluorescence and quenching.

UniProt P10275, sequence (P10275 whole entry, looked up): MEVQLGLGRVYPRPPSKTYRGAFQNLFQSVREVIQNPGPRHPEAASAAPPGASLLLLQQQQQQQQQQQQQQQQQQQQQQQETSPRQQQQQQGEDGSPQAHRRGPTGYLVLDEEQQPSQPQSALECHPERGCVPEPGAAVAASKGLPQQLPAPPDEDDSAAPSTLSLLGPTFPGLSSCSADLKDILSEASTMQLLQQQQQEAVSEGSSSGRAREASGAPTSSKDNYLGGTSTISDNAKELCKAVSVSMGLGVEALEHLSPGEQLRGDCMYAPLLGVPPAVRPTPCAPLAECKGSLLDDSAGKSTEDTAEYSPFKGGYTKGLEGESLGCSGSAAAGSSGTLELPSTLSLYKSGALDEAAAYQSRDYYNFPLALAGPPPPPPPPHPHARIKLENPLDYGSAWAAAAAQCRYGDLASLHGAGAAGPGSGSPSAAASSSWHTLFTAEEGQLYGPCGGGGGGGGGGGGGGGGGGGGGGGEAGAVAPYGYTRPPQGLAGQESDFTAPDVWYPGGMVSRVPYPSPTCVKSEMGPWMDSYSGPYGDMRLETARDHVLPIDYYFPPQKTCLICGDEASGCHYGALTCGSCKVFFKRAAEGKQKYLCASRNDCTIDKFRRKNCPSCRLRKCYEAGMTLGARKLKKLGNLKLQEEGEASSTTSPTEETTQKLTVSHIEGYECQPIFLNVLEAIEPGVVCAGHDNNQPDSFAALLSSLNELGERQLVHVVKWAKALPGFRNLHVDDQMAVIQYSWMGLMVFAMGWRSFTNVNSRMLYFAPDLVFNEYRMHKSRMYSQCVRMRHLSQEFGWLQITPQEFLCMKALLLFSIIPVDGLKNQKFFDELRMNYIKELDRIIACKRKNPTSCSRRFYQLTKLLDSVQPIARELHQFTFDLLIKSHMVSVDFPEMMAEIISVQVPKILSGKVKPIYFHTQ
UniProt Q96RI1, sequence (Q96RI1 whole entry, looked up): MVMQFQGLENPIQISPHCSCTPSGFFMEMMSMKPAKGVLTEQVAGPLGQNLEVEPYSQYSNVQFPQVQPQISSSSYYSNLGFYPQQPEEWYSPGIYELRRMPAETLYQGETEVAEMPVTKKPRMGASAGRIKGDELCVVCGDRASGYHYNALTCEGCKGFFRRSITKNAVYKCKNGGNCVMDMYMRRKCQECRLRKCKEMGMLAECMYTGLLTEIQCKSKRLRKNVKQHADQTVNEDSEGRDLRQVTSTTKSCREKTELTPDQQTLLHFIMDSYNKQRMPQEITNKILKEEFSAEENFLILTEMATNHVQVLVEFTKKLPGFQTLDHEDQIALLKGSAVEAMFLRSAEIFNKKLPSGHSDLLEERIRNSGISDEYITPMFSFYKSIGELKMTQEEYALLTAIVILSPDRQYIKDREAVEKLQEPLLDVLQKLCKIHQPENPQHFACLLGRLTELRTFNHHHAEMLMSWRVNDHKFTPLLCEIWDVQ
UniProt P03372, sequence (P03372 whole entry, looked up): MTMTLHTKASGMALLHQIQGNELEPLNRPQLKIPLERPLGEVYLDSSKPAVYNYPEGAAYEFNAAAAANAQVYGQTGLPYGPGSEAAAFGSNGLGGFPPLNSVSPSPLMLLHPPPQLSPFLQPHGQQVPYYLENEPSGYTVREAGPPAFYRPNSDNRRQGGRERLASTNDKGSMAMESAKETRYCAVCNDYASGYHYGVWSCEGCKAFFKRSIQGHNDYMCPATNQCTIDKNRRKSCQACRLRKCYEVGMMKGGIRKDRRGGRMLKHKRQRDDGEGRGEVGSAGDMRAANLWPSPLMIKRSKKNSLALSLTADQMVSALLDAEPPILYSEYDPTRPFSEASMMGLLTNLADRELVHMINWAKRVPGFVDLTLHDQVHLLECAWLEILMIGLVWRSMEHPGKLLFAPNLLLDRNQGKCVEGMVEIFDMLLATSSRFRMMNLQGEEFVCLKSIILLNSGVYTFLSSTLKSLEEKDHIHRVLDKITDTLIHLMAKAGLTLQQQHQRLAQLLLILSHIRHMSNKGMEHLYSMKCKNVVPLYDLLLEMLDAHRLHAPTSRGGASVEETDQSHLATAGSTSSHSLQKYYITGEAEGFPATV
UniProt Q14994, sequence (Q14994 whole entry, looked up): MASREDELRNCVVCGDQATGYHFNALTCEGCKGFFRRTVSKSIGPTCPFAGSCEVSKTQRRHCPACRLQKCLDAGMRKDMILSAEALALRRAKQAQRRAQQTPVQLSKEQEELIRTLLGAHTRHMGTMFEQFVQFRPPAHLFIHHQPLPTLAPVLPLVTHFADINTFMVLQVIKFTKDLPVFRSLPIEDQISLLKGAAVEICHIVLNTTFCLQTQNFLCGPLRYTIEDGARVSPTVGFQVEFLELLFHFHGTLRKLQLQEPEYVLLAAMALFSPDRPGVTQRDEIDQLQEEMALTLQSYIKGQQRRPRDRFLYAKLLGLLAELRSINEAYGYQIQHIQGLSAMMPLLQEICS
UniProt P34981, sequence (P34981 whole entry, looked up): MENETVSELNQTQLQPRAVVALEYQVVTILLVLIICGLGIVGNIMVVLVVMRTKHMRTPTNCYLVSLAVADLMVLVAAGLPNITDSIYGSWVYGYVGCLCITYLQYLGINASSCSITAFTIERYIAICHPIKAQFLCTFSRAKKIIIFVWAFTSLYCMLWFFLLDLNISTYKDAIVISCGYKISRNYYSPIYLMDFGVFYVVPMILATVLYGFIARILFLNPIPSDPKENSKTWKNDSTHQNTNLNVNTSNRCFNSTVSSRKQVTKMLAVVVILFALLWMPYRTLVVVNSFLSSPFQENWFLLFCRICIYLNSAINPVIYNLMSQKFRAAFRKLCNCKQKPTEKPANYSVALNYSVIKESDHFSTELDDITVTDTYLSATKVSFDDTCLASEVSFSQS

With O=C(O)/C=C/C(=O)O the Potency [1] was “inactive”.

For CCc1cc2c(s1)-n1c(C)nnc1CN=C2c1ccccc1Cl, the Potency [2] was inconclusive [activator, partial curve, poor fit], the Potency [3] was inconclusive [inhibitor, full curve] and the Potency [4] was inconclusive [activator, single point]. For the same compound, the Potency [5] was active: 18.8 µM.

With CCN(CC)CCOC(=O)C(O)(c1ccccc1)c1ccccc1 the Potency [6] was “inactive”.

With CN(C)C1CCCCC1 the Potency [7] was inconclusive [rising, partial curve, poor fit] and the Potency [8] was “inactive”.

For CCC1(c2cccc(O)c2)CCCCN(C)C1 (centres undefined), the Potency [9] was “inactive”.

With BrCCc1ccccc1 the Potency [10] was “inactive”.

With C#CC(O)(C=CCl)CC (centres undefined) the cAMP activity change [11] was inconclusive: -2.89%.

In the case of ClCC(Cl)(Cl)Cl, the Potency [12] is reported as “inactive”.

For ClC(Cl)C(Cl)Cl, the Potency [13] was inconclusive [activator, partial curve, poor fit].

In the case of C=CCOCC1CO1 (centres undefined), the Potency [6] is reported as “inactive”.

With C[C@@H]1CN(C2CCC(C#N)(c3ccc(F)cc3)CC2)CC[C@]1(C(=O)O)c1ccccc1 (some centres undefined) the Potency [14] was “inactive”.

In the case of CCC(C)C(C)(COC(N)=O)COC(N)=O (centres undefined), the Potency [10] is reported as “inactive”.

With CN1C(=O)CN=C(c2ccccc2)c2cc([N+](=O)[O-])ccc21 the Potency [15] was inconclusive [activator, single point].

With C#CCN(C)[C@H](C)Cc1ccccc1 the Potency [13] was “inactive”.

For C[C@]12CC[C@H]3[C@@H](CCC4=CC(=O)CC[C@@]43C)[C@@H]1CC[C@H]2O, the Potency [15] was inconclusive [activator, partial curve, poor fit].

In the case of Cc1nc(N)nc(N)n1, the activation [16] is reported as inconclusive: 142%.

With O=S(=O)(O)c1cc(O)ccc1O the Potency [17] was inconclusive [fluorescent, partial curve, poor fit].

With CC[C@H](N)c1ccccc1 the Potency [16] was inconclusive [rising, single point].

With C=CCCC#N the Potency [18] was “inactive”.

In the case of C=COCCCl, the Potency [19] is reported as “inactive”.

In the case of CCc1ccccc1C, the Potency [12] is reported as “inactive”.

In the case of ClCc1ccccc1Cl, the Potency [2] is reported as “inactive”.

In the case of CC(=O)OCC1=C(C(=O)O)N2C(=O)[C@@H](N)[C@H]2SC1, the Potency [17] is reported as inconclusive [fluorescent, partial curve, poor fit].

In the case of c1ccc2c(c1)ccc1ncccc12, the Potency [20] is reported as “inactive”.

For Brc1ccc(Br)c(Br)c1, the Potency [20] was “inactive”.
